In PMC4336329 (PLoS ONE, 2015):
Hit rate of the full screen: of about 310,000 compounds, about 2,200 (0.71%) showed an effect of 50% or more. Effects have a minus sign here. This is one part of the list.

Biological target: human ether-à-go-go-related gene (hERG) potassium channel (human, UniProt Q12809)
Assay: primary screen, population patch clamp on CHO cells stably expressing hERG

Chain of human ether-à-go-go-related gene (hERG) potassium channel (Q12809 whole entry, looked up): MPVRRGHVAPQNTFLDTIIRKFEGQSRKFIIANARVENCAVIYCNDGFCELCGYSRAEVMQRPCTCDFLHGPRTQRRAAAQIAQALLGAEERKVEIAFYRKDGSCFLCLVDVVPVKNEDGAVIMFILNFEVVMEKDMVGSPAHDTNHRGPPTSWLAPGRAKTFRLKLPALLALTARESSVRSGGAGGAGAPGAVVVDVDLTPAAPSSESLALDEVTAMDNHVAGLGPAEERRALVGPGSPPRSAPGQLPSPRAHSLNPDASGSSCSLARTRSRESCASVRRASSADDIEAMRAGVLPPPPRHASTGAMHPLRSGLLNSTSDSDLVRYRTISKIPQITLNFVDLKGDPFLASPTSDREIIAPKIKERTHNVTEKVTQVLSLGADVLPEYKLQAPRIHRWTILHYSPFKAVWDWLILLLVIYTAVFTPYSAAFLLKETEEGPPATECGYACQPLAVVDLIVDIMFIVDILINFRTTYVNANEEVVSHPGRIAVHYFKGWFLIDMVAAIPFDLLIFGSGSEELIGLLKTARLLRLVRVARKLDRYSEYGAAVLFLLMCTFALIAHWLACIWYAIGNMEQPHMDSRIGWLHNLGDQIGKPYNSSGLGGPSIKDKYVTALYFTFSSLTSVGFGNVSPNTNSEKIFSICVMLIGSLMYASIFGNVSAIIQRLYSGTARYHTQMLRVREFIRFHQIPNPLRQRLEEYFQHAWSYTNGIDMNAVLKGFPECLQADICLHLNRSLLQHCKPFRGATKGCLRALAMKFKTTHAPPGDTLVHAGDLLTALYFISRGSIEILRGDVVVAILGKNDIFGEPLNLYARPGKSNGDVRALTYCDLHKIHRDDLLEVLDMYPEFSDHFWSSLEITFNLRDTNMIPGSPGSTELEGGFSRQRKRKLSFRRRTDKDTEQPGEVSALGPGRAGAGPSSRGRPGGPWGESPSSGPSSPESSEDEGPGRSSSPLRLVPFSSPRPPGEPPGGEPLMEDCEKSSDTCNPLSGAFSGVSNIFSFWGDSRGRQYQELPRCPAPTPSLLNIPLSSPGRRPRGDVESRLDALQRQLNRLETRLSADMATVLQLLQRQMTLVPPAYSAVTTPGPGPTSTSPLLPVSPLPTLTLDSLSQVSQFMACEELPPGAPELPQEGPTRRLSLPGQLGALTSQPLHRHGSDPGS

Compound | hERG current change (%, negative = inhibition) at 1uM
Cc1ccc(C(=O)NNC(=O)c2ccncc2)cc1[N+](=O)[O-] | 9.41%
Cc1ccc(S(=O)(=O)N2CCN(C(=O)c3ccccn3)CC2)c(C)c1 | 8.61%
Cc1nc(N)sc1C(=O)NN | 10.1%
Cc1ccc(C)c(-c2ccc(=O)n(Cc3ccc(F)cc3Cl)n2)c1 | 11.2%
N#Cc1ccccc1/C=N/Nc1nc(-c2ccccc2)c2cc(Br)ccc2n1 | -10.5%
CSCC[C@H](N)C(=O)N1CCC(C(=O)N[C@H](C(=O)NCc2ccccc2F)C(C)C)CC1 | 3.41%
O=c1c2ccccc2ncn1-c1ccc([N+](=O)[O-])c(C(F)(F)F)c1 | 2.09%
Cc1oc(-c2ccc(Cl)cc2)nc1CS(=O)CC(=O)NC(C)c1ccccc1 (stereo not drawn) | 3.54%
Cn1cc(/C=C2\SC(=S)N(NC(=O)c3ccccc3Cl)C2=O)c2ccccc21 | 8.73%
CCC(C(=O)Nc1cc(C(=O)Nc2cc(C)ccn2)ccc1Cl)c1ccccc1 (stereo not drawn) | 4.19%
COC(=O)C1=C(c2cccc(OC)c2OC)C[C@@H]2CC[C@H]1N2C(=O)N1CCCC1 | 5.49%
COC(=O)c1c(NC(=O)COC(=O)Cn2cnc3ccccc32)sc(C)c1C | 1.68%
NNC(=O)c1ccc(-c2cccc([N+](=O)[O-])c2)o1 | 13.2%
Cc1nn(C)c(C)c1S(=O)(=O)N(CC(=O)NCc1cccs1)c1ccc(C(C)C)cc1 | 18.9%
COc1ccccc1/C=C/C(=O)OC(C)CN1CCOCC1.Cl (stereo not drawn) | 2.8%
CCC1(C)Cc2ccccc2-c2nc(NCCO)[nH]c(=O)c21 (stereo not drawn) | 17%
CCOc1ccc(CCNC(=O)c2ccc(NC3=NC4CS(=O)(=O)CC4S3)cc2)cc1 (stereo not drawn) | 6.76%
Cc1ccccc1OCCOC(=O)c1nc2nccc(C)n2n1 | 5.54%
CC(C)C(=O)N1CCN(c2ccc(NC(=O)c3cccs3)cc2)CC1 | 19.7%
CCOc1ccc(S(=O)(=O)N2CCOCC2)cc1NC(=O)CSCc1ccc(C)cc1 | -20.7%
COc1ccc(CCc2nnc(NS(C)(=O)=O)s2)cc1 | 10.2%
CCOC(=O)C1CCCc2c1[nH]c1c(C(N)=O)cccc21 (stereo not drawn) | -3.83%

Compound | hERG current change (%, negative = inhibition) at 1uM
COc1ccc2c(c1)cc1n2CCN=C1NN.Cl.O | 20.9%
c1ccc2[nH]c(SCc3cscn3)nc2c1 | 8.86%
O=C(CSc1ccc(-c2cccnc2)nn1)Nc1ccc(F)cc1F | 5.63%
Cc1ccc(S(=O)(=O)CC(=O)Nc2nnc(C(C)(C)C)s2)cc1 | 12.8%
O=C(Cn1cc(C(F)(F)F)ccc1=O)NC(c1ccccc1)c1ccccc1 | 1.45%
CN(CC(=O)Nc1cccc(F)c1)C(=O)CCNC(=O)c1ccc(Br)cc1 | 2.35%
CCOC(=O)C1=C(O)/C(=C/c2ccc(CNC(=O)C(=O)Nc3ccc(C)cc3)o2)N=C1C | 12.9%
CCc1nc2c(c(=O)c3ccccc3n2C)c(=O)n1CCc1ccc(OC)cc1 | -37.7%
CCc1c(C)nc2ncnn2c1N1CCC(C(=O)Nc2cccc(C(C)=O)c2)CC1 | 2.14%
Cc1ccc(NCc2ccccc2)cc1 | 13.5%
O=C(O)CCNC(=O)COc1ccc2c3c(c(=O)oc2c1)CCCC3 | 13.9%
O=[N+]([O-])c1cc(Cl)cc2c1nc(NCCO)c1ccccc12 | 14.5%
CC(C)CNc1oc(-c2ccco2)nc1C#N | 7.14%
Cc1ccccc1Cn1ccc(NC(=O)c2nn(C)cc2[N+](=O)[O-])n1 | 8.95%
Cc1nc2ccccc2c(=O)n1NC(=O)Nc1ccccc1 | -7.47%
CCC(=O)N1CCN(c2ccc(NC(=O)c3cccs3)cc2)CC1 | 11.5%
CCn1c(C)c(C(C)=O)c(N2CCN(c3ccc(F)cc3)CC2)nc1=S | -24.3%
O=C(Nc1ccccc1)c1ccccc1Oc1ccc(C(F)(F)F)cc1[N+](=O)[O-] | 4.89%
CCOC(=O)CSc1nc2cc(S(=O)(=O)N3CCOCC3)ccc2n1CC | -9%
Cc1ccc(N2CC(C(N)=O)CC2=O)cc1C (stereo not drawn) | 0.182%
C[C@@H](NC(=O)c1cc2c([nH]c3ccccc32)c(-c2ccccc2)n1)C(=O)O | 8.28%
COc1ccc(C(=O)N/C(=C\c2ccco2)C(=O)NCc2cccnc2)cc1 | -48.9%

Compound | hERG current change (%, negative = inhibition) at 1uM
Cc1ccc(C(=O)CCC(=O)Nc2ncccc2O)cc1 | 20.4%
O=C(NCc1cc(C(F)(F)F)cc(C(F)(F)F)c1)C1CC(c2c(Cl)cccc2Cl)=NO1 (stereo not drawn) | 13.7%
Cc1ccc(N2CC(=O)N(c3ccc(C)cc3)CC2=O)cc1 | 15.1%
OC(CN1CCN(c2ncc(C(F)(F)F)cc2Cl)CC1)c1ccccc1 (stereo not drawn) | 1.4%
Cc1ccn2cc(-c3nonc3C)cc2c1 | 4.72%
COc1ccc([C@H]2CC(=O)C=C(c3cccc(C#N)c3)C2)cc1 | 2.28%
CCOC(=O)C1CCCN(C(=O)Cn2ncc3c([nH]c4ccccc43)c2=O)C1 (stereo not drawn) | -3.08%
COc1ccccc1NC(=O)C1CCCN(S(=O)(=O)c2ccc3c(c2)CC(C)N3C(C)=O)C1 (stereo not drawn) | 21.3%
COc1ccc(-n2nnnc2CNC(=O)C(=O)c2c(C)[nH]c3ccccc23)cc1 | 3.65%
CC(=O)c1sc(NC(=O)c2ccc(Cn3cc(Br)cn3)o2)nc1C | 0.922%
CC(C)(C)c1ccc(S(=O)(=O)N2CCN(C(=O)C3CCC3)CC2)cc1 | 10.3%
Cc1ccc(Cn2ccnc2SCC(=O)NC2CCCC2)cc1 | 10.7%
Cc1ccc(S(=O)(=O)NC2c3cccc4cccc(c34)C2Sc2n[nH]c(N)n2)cc1 (stereo not drawn) | 19.5%
CCCCCc1ccc(-c2ccc(C(=O)O)cc2)nc1 | 2.18%
Cc1noc(NS(=O)(=O)c2ccc(NC(=O)CS(=O)(=O)c3ccccc3)cc2)c1C | 4.45%
CCOC(=O)c1nccnc1C(=O)Nc1ccc(C(F)(F)F)cc1 | 14.4%
Cc1ccc(Cl)cc1NC(=O)CCS(=O)(=O)c1cccc2nonc12 | 10.8%
O=C(NCCc1ccccc1)C(=O)NCC(c1ccco1)N1CCOCC1 (stereo not drawn) | 13.8%
O=S(=O)(c1ccccc1)c1nnn2c1nc(NC1CCN(Cc3ccccc3)CC1)c1ccccc12 | 8.23%
COC(=O)C1=C(C(=O)OC)SC(=C2C(=S)C(C)(C)N(C(=O)C(C)C)c3ccccc32)S1 | 5.97%
O=C1c2ccc([N+](=O)[O-])cc2C(=O)N1Cc1cccnc1 | 15.7%
COc1ccc(C(=O)N/N=C/c2ccc(OC)c(CN3CCCc4ccccc43)c2)cc1 | -6.65%

Compound | hERG current change (%, negative = inhibition) at 1uM
Cc1c(C(=O)OCC(=O)Nc2ccc(S(N)(=O)=O)cc2)oc2c1ccc1ccccc12 | 9.1%
Brc1ccc(-c2csc(N/N=C/c3ccco3)n2)cc1 | 9.56%
COc1ccc(S(=O)(=O)N2CCC(C(=O)NCc3ccncc3)CC2)cc1OC | 14.4%
O=C(NNc1c2ccccc2nc2ccccc12)c1ccc(Cl)cc1 | 10.3%
O=C(Cn1c(-c2ccccc2)noc1=O)Nc1ccc(S(=O)(=O)N2CCOCC2)cc1 | -4.86%
CCOC(=O)N1CCC(NC(=O)c2ccc3c(c2)sc2nc(-c4ccc(OC)cc4)cn23)CC1 | 13.8%
Cc1ccc(/C(=C\CN2CCCC2)c2ccccn2)cc1.Cl | -22%
CCOC(=O)c1cc(C#N)c(NCc2ccccc2)nc1C | 9.63%
CCCCC(=O)OCc1nc2ccccc2s1 | 7.46%
COc1cc(C2CC(=O)N3CN(Cc4ccccc4)CSC3=C2C#N)ccc1OCc1ccccc1 (stereo not drawn) | 14.8%
COc1ccccc1OCCC(=O)OCC(=O)c1c(N)n(C)c(=O)n(C)c1=O | 1.47%
CCC(=O)NCC(c1cccs1)S(=O)(=O)c1ccc(C)cc1 (stereo not drawn) | 13.7%
COC(=O)c1c(NC(=O)CN2CCCc3ccccc32)sc(C)c1C | 12.3%
Cc1ccc(C(=O)OCC(=O)NCc2ccco2)cc1 | -0.27%
COc1ccc(/C=N/Nc2nc3ccccc3c(=O)[nH]2)cc1 | -5.9%
CCOC(=O)Cc1csc(NC(=O)c2sc3nc4c(C)cc(C)cc4cc3c2N)n1 | -0.344%
COCCNC(=O)c1cc(-c2ccc(OC)c(OC)c2)on1 | -0.75%
COc1ccccc1NC(c1cccnc1)c1ccc2cccnc2c1O (stereo not drawn) | 11.4%
CCCc1nnc(SCC(=O)Nc2cccc(C(F)(F)F)c2)o1 | 8.53%
CCC(=O)NC(=S)Nc1ccc(NC(=O)COc2ccc(Cl)cc2Cl)cc1 | 10.6%
CCCC(CCC)C(=O)Oc1cc(C)[nH]c(=O)c1[N+](=O)[O-] | 5.72%
